3 sequences from the supplement of paper PMC10338343 can be followed below.

± gives the standard deviation. Only a part is listed here, and it is no random draw.

For this assay, the system named is MIWI (PIWIL1) piRISC loaded with L1MC piRNA (30 nt). The assay can be described thus: pre-steady-state target cleavage rate (min^-1); MIWI and MILI are mouse PIWI proteins and EfPiwi is from a freshwater sponge; tags in brackets are library labels; higher = faster piRNA-guided slicing of the target. To be noted: guide: L1MC piRNA 5'p-UAACUAAAUACUAUGCAAGCUGUAGGUCCU; auxiliary factor: none (no GTSF1). In a few lines:
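A transcribed, DNA-blocked target RNA library (0.1 nM) and 1 nM active affinity-purified piRISC bearing one synthetic guide were incubated in HEPES–potassium acetate buffer at 33 °C for 0–8 or 0–960 min, either with or without 500 nM GTSF1 partner protein. Uncleaved targets were sequenced, normalised to depth and to weakly complementary targets, and pooled over three trials, with k3 capped at 0.0001 min^-1. The pre-steady-state cleavage rate was derived with a burst-and-steady-state fit.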
On to UCGUGCUACAGCUUGCAUAGUAUUUAGUUA, for which the “pre-steady-state target cleavage rate” value was determined as 0.0704 ± 0.012. “UCCUGGAUGUCGAACGUUAGUAUUUUCAAA [g6:g13:cont:t1A]”: the “pre-steady-state target cleavage rate” value is under 0.0001. Take UCCUGGAUGUCGAACGUAAGUAAUAAGUUA: the “pre-steady-state target cleavage rate” value is under 0.0001.
